# Hit rate of the full screen: of about 52,000 compounds, about 4,300 (8.3%) were called active. Cut-off read from the data, not from the text of the source: active = survival mostly below about 52% (no sharp cut-off); inactive = mostly above about 56%. The list shows a part of the results.
# System: DeltatarO mutant
# Experiment: S. aureus survival, RN4220 and DeltatarO strains – OD600, teichoic acid synthesis inhibitors, primary screen (AID 463173)
# Conditions: S. aureus RN4220 wild type/DeltatarO growth, OD600, 18 h, active compounds read low, screened at 18.75 µg/mL (by protocol)
row,Structure (SMILES),survival
1,O=C(Nc1cc(-c2nc3cc(Cl)ccc3o2)ccc1Cl)c1cc2ccccc2o1,inactive: 82%
2,CCN(Cc1ccccc1)Cc1c(O)ccc2c(=O)c(-c3ccccc3Cl)coc12,inactive: 51%
3,O=C(O)CN1Cc2ccccc2C1,inactive: 99%
4,CCn1cc(C(=O)NCCCOC(C)C)c(=O)c2cc(S(=O)(=O)N(C)C3CCCCC3)ccc21,inactive: 113%
5,CCOc1ccccc1NC(=O)C(C)n1nnc2sc3c(c2c1=O)CCCC3 (stereo not given),inactive: 108%
6,COc1ccc(NC(=O)CSc2nc3ccccc3n2CC(=O)Nc2cccc(C)c2C)cc1,inactive: 124%
7,Cc1ccc(CCNC(=O)c2ccc(Cn3c(=O)c4cccn4c4cccnc43)cc2)cc1,inactive: 52%
8,Cc1ccc(-n2c(SCC(N)=O)nc3c(oc4ccccc43)c2=O)cc1,inactive: 69%
9,CCn1c(CNC(=O)C23CC4CC(CC(C4)C2)C3)nnc1SCC(=O)Nc1ccc(OC)cc1,inactive: 83%
10,O=C(COc1cccc(Cl)c1)N1CCC(c2nc3ccccc3s2)CC1,active: 44%
11,CCC(C(=O)N1CC2(C)CC1CC(C)(C)C2)N1C(=O)c2ccccc2C1=O (stereo not given),inactive: 91%
12,COC1=NS(=O)(=O)c2ccccc21,inactive: 89%
13,O=S1(=O)CCC(N2CCCCC2)C1 (stereo not given),inactive: 95%
14,Cc1ccc(NC(=O)C2CCN(c3ncccn3)CC2)cc1F,active: 53%
15,COc1cccc(C(=O)Nc2ccccc2SCc2cc(=O)c3cccc(C)c3[nH]2)c1,inactive: 72%
16,Cc1cccc2cc(CN(C(=O)C(F)(F)F)C3CCCC3)c3nnnn3c12,inactive: 100%
17,Cc1cc(C)cc(NC(=O)c2cc(S(=O)(=O)N3CCOCC3)cn2C)c1,inactive: 67%
18,Cc1ccc(Cl)cc1N1CCN(C(=O)c2cnn(-c3ccc(Cl)cc3)c2C2CCNCC2)CC1,inactive: 78%
19,N#Cc1c[nH]n2c(NC3CCCC3)c(-c3ccc(Br)cc3)nc12,inactive: 88%
20,O=C(O)c1cccc(NC(=O)c2cccc(S(=O)(=O)Nc3cccc(F)c3)c2)c1,inactive: 166%
21,O=S(=O)(Nc1ccc(-c2ccc(N3CCCC3)nn2)cc1)c1ccccc1Cl,inactive: 66%
22,Cn1c(SCC(=O)N2c3ccccc3CCc3ccccc32)nnc1C1CC1,inactive: 91%
23,CCOc1cccc(C2c3c(oc4ccc(F)cc4c3=O)C(=O)N2CCOC)c1 (stereo not given),inactive: 74%

row,Structure (SMILES),survival
1,CCCNC(=O)C1CCC(Cn2c(=O)c3sccc3n(CC(=O)N3CCCC(C)C3)c2=O)CC1 (stereo not given),inactive: 87%
2,CC(=O)C1=C(c2ccc(C)cc2)N(C(C)=O)n2c(nnc2-c2ccccc2)S1,inactive: 126%
3,CCOc1ccc(C(=O)NC2CCN(CC(=O)NCc3ccccc3)CC2)cc1,inactive: 107%
4,COc1ccc(S(=O)(=O)NCC(c2ccc(N(C)C)cc2)N2CCCC2)cc1F (stereo not given),inactive: 98%
5,N#C/C(=C\c1ccc2c(c1)OCO2)c1ccccc1,inactive: 82%
6,Cc1cc(C)c(NC(=O)Cn2nnc(-c3nc(-c4ccncc4)no3)c2N)c(C)c1,inactive: 94%
7,Cc1cccc(-c2nnn3c2nc(NCCC(C)C)c2ccccc23)c1,inactive: 99%
8,CCOc1ccc(C2c3c(oc4ccccc4c3=O)C(=O)N2Cc2ccc3c(c2)OCO3)cc1 (stereo not given),active: 36%
9,Cc1ccc(Nc2c(-c3ccc(N4CCOCC4)cc3)nc3ccc(Cl)cn23)cc1,inactive: 100%
10,Cc1cc2c(cc1S(=O)(=O)N1CCC(C(N)=O)CC1)OCC(=O)N2,inactive: 91%
11,CC(=O)c1ccc(NC(=O)/C=C/c2ccc(C)o2)cc1,inactive: 48%
12,CCn1c2ccccc2c2cc(/C=N/NC(=O)Cc3cccs3)ccc21,inactive: 78%
13,COc1cn(CC(=O)Nc2ccc(C)cc2C)c(CN2CCCCC2)cc1=O,inactive: 71%
14,COc1cccc(C(=O)Nc2ccc(-c3nc4ccc(C)cc4s3)cc2)c1OC,inactive: 49%
15,O=C(CSc1nc2c([nH]c3ccccc32)c(=O)n1-c1cccc(C(F)(F)F)c1)N1CCCC1,inactive: 71%
16,CCOC(=O)c1cccc(NC(=O)C2(S(=O)(=O)c3ccc(C)cc3)CC2)c1,inactive: 81%
17,CCCS(=O)(=O)N1CC(=O)N(c2ccccc2C)C(C)(C(=O)NC2CCCCC2)C1 (stereo not given),inactive: 75%
18,Cc1ccc(S(=O)(=O)c2nnn3c2nc(NCc2ccc(F)cc2)c2sccc23)cc1C,inactive: 47%
19,CC(C)OCCCn1c(=O)c2ccccc2n2c(-c3ccc(F)c(F)c3)nnc12,inactive: 97%
20,CCC1CN(C(=O)N2CCC(C(=O)NCc3ccc(C)o3)CC2)c2ccccc2O1 (stereo not given),inactive: 87%
21,COc1ccc(Nc2cc(C(=O)NCc3ccccc3)c3ccccc3n2)cc1,inactive: 97%
22,Cc1nn(-c2ccc(N3CCCC3)nn2)c(C)c1CCC(=O)NCc1ccc(F)cc1,inactive: 74%
23,Cc1ccccc1Cn1cc(NC(=O)c2cc(-c3ccc(Cl)cc3)on2)cn1,inactive: 72%

row,Structure (SMILES),survival
1,Cc1ccc(Cl)cc1N1CCN(S(=O)(=O)c2ccc3oc(=O)c4ncn(C)c4c3c2)CC1,inactive: 107%
2,CCc1ccc(OCC(=O)Nc2ccc(Cl)c(-c3nc4cc(C)cc(C)c4o3)c2)cc1,active: 35%
3,Cc1cccc(OCC(=O)NCC2(N3CCN(C)CC3)CCCCC2)c1,inactive: 74%
4,S=C(Nc1ccccc1)Nc1ccccn1,inactive: 89%
5,Cc1cccc(NC(=O)CN2C(=O)COc3ccc(S(=O)(=O)Nc4ccccc4)cc32)c1C,inactive: 119%
6,Cc1[nH]c2ccc(C(=O)NCCc3ccccc3Cl)cc2c1C,inactive: 68%
7,O=C(Cn1nc(-c2nccc3ccccc23)oc1=O)N1CCCc2ccccc21,inactive: 102%
8,CCOC(=O)C1CCN(C(=O)c2ccc3c(c2)sc2nc(-c4ccc(C)cc4)cn23)CC1,inactive: 98%
9,COc1ccc(-c2nc3cc(C(C)C)ccc3o2)cc1NC(=O)c1ccc(C)c(Cl)c1,active: 21%
10,O=S(=O)(NCc1nc2cccnc2n1Cc1ccc(F)cc1)c1ccc(Cl)s1,active: -5%
11,COc1ccc(NC(=O)c2cc(S(=O)(=O)NCCC3=CCCCC3)ccc2F)cc1,inactive: 94%
12,COC(=O)c1cc2sc(C)cc2n1CC(=O)Nc1cccc(SC)c1,inactive: 74%
13,FC(F)(F)c1ccc(-c2noc(-c3ccccc3Br)n2)cc1,inactive: 83%
14,CCc1ccc(NC(=O)C2CCN(S(=O)(=O)c3c(C)noc3/C=C/c3ccco3)CC2)cc1,inactive: 69%
15,Cn1ccc2c(OCC(=O)Nc3ccc([N+](=O)[O-])cc3)cccc2c1=O,inactive: 126%
16,CSc1ccc(CNC(=O)CN2C(=O)C3CCCCN3c3ccc(C(=O)N4CCCC4)cc32)cc1 (stereo not given),inactive: 83%
17,COc1ccc(Cn2ccc3nc(C)c(C(=O)N4CCN(c5ccccc5F)CC4)cc3c2=O)cc1,inactive: 63%
18,COc1ccc(CNc2ccc(-c3ccc(OC)cc3)nn2)cc1,inactive: 80%
19,Cc1ccc(NC(=O)Cn2cc3c(n2)CCC(C)C3)cc1C (stereo not given),inactive: 89%
20,O=C(Cc1n[nH]c(=O)c2ccccc12)NCc1ccccc1,inactive: 89%
21,COC(=O)C1CCN(S(=O)(=O)c2ccc(OC)cc2)CC1,inactive: 81%
22,Cc1ccc(CCNC(=O)c2ccc(CS(=O)(=O)Cc3cccc(C)c3)o2)cc1,inactive: 89%
23,CCc1ccccc1N(C)C(=O)c1nn(C)c2c1CSc1ccccc1-2,inactive: 75%

row,Structure (SMILES),survival
1,COC(=O)c1ccc(Oc2nc3c(c(=O)n(C)c(=O)n3C)n2C(C)C)cc1,inactive: 85%
2,CCCCNC(=O)CSc1nc2cc3c(cc2c(=O)n1CCCCCC(=O)NCCc1ccc(OC)c(OC)c1)OCO3,inactive: 89%
3,Cc1ccc2nc(N3CCC(C(=O)NCc4ccc(F)cc4)CC3)[nH]c2c1,inactive: 96%
4,Cc1cc(C)c(S(=O)(=O)NCc2csc(-c3ccccc3)n2)c(C)c1,active: 34%
5,Cc1ccc2nc(COc3cccc(NC(=O)c4cccc(Cl)c4)c3)cc(=O)n2c1,inactive: 70%
6,CCn1ccc2cc(S(=O)(=O)N3CCCN(C(=O)NCC(=O)OC)CC3)ccc21,inactive: 94%
7,Nc1ccc(Cc2nc3ccccc3[nH]2)cc1,inactive: 86%
8,Cc1ccccc1C(=O)NC1(C(F)(F)F)N=C(c2ccccc2)N(Cc2ccccc2)C1=O (stereo not given),inactive: 134%
9,Cn1c(NN)nc2ccccc2c1=O,inactive: 56%
10,Cc1ccc(OCC(=O)Nc2ccc3nc(SCC(=O)N4CCOCC4)sc3c2)cc1C,inactive: 75%
11,CCC(Sc1nc2cc3c(cc2c(=O)n1CCCC(=O)NCc1ccc(OC)cc1)OCO3)C(=O)NCCCOC (stereo not given),inactive: 84%
12,CCOC(=O)C1CCCN(C(=O)CCS(=O)(=O)c2cc3c(cc2Cl)NC(=O)CO3)C1 (stereo not given),inactive: 96%
13,CCN(CC)C(=O)c1sc2c(c1C)c(=O)n(-c1ccc(C)c(C)c1)c(=O)n2Cc1cccc(Cl)c1,inactive: 55%
14,Cc1ccc2cccc(NC(=O)c3ccc(C#N)cc3F)c2n1,inactive: 165%
15,CC(=O)N1CCc2cc(CNS(=O)(=O)c3ccc(C(C)(C)C)cc3)ccc21,inactive: 87%
16,Cc1ccccc1NC(=O)Cn1c(=O)n(CCC(=O)NCc2ccc3c(c2)OCO3)c(=O)c2sccc21,inactive: 150%
17,CCCC(=O)C1=C(N2CCN(C3=C(C(=O)CCC)C(=O)CC(C)(C)C3)CC2)CC(C)(C)CC1=O,inactive: 81%
18,OC1C2CN3CCN(C2)CC1(Cc1ccccc1)C3 (stereo not given),inactive: 89%
19,CCC12CN3CC(C)(CN(C1)C3c1c[nH]c3ccc(OC)cc13)C2=O (stereo not given),inactive: 76%
20,O=C(O)c1snc2c(=O)[nH]cnc12,inactive: 95%
21,O=C(CN1C(=O)CCc2cc(S(=O)(=O)N3CCOCC3)ccc21)NCc1ccccc1Cl,inactive: 70%
